# Assay results as given in the supplement of paper PMC4604168 (melanoma cell lines).
# The list shows a part of the results. Most values come without repeats; read them as rough.
# System: IPC-298
# Assay: cell count relative to DMSO control; melanoma cells; higher = more viable cells
# Settings: library dose: standard library concentration; 72 h
# 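Also: cells treated in 1,536-well plates, then fixed and DAPI-stained, with nuclei counted from automated high-throughput microscope images.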
row,Compound,cell count
1,"Cn1cc(/C=C2\C(=O)Nc3cccnc32)c2ccccc21 + CCCCCCCCCCCC1=C(O)C(=O)C=C(O)C1=O [Embelin] (first compound 2 µM, partner dose 6 µM)",69.5%
2,"COc1ccc2c(c1)CCC1C2CCC2(C)C(NCCCCCCN3C(=O)C=CC3=O)CCC12 (stereo unspecified) + CCCCCCCCCCCC1=C(O)C(=O)C=C(O)C1=O [Embelin] (first compound 2 µM, partner dose 6 µM)",42%
3,"COc1cc2ncnc(Nc3ccc(Oc4ccccc4)cc3)c2cc1OC + Cn1cc(/C=C2\C(=O)Nc3cccnc32)c2ccccc21 [GW441756] (first compound 10 µM, partner dose 2 µM)",64%
4,"Cc1cc([N+](=O)[O-])ccc1NS(=O)(=O)c1cc(Cl)ccc1Cl + COc1cc(N2CCC(N3CCN(C)CC3)CC2)ccc1Nc1ncc(Cl)c(Nc2ccccc2S(=O)(=O)C(C)C)n1 [NVP-TAE684] (first compound 5 µM, partner dose 0.4 µM)",54.9%
5,"N#Cc1c(O)c2c(-c3ccc(-c4ccccc4O)cc3)csc2[nH]c1=O + COc1cc(N2CCC(N3CCN(C)CC3)CC2)ccc1Nc1ncc(Cl)c(Nc2ccccc2S(=O)(=O)C(C)C)n1 [NVP-TAE684] (first compound 10 µM, partner dose 0.4 µM)",91.4%
6,"O=S(=O)(c1ccccc1)N(CC(F)(F)F)c1ccc(C(O)(C(F)(F)F)C(F)(F)F)cc1 + Cc1cc([N+](=O)[O-])ccc1NS(=O)(=O)c1cc(Cl)ccc1Cl [FH535] (first compound 7 µM, partner dose 5 µM)",39.1%
7,"COc1ccc(-c2ccc3c(N4CCOCC4)nc(N4C[C@@H](C)O[C@@H](C)C4)nc3n2)cc1CO + Oc1nc(-c2ccc(C(F)(F)F)cc2)nc2c1CSCC2 [XAV939] (first compound 0.1 µM, partner dose 10 µM)",73.3%
8,"COc1ccc(-c2ccc3c(N4CCOCC4)nc(N4C[C@@H](C)O[C@@H](C)C4)nc3n2)cc1CO + O=C1NC(=O)/C(=C/c2ccc(-c3ccc(F)cc3O)o2)S1 [AS252424] (first compound 0.1 µM, partner dose 5 µM)",80.3%
9,"COC(=O)c1sccc1S(=O)(=O)Nc1ccc(Nc2ccccc2)cc1OC + Cc1cc([N+](=O)[O-])ccc1NS(=O)(=O)c1cc(Cl)ccc1Cl [FH535] (first compound 5 µM, partner dose 5 µM)",50.9%
10,"CCN(CC)CCCCNc1ncc2cc(-c3cc(OC)cc(OC)c3)c(NC(=O)NC(C)(C)C)nc2n1 + Cn1cc(/C=C2\C(=O)Nc3cccnc32)c2ccccc21 [GW441756] (first compound 0.5 µM, partner dose 2 µM)",89.9%
11,"CCN(CC)CCCCNc1ncc2cc(-c3cc(OC)cc(OC)c3)c(NC(=O)NC(C)(C)C)nc2n1 + c1cc(-c2cnn3cc(-c4ccc(OCCN5CCCCC5)cc4)cnc23)ccn1 [Dorsomorphin] (first compound 0.5 µM, partner dose 2 µM)",93.2%
12,"CCN(CC)CCCCNc1ncc2cc(-c3cc(OC)cc(OC)c3)c(NC(=O)NC(C)(C)C)nc2n1 + O=C(O)C(=O)Nc1sc2c(c1C(=O)O)CCNC2 [TCS401] (first compound 0.5 µM, partner dose 8.33333 µM)",94.3%
13,"COc1ccc(COc2ccc(Cc3cnc(N)nc3N)cc2OC)cc1 + O=S(=O)(c1ccccc1)N(CC(F)(F)F)c1ccc(C(O)(C(F)(F)F)C(F)(F)F)cc1 [T0901317] (first compound 5 µM, partner dose 7 µM)",81.1%
14,"O=S(=O)(c1ccccc1)N(CC(F)(F)F)c1ccc(C(O)(C(F)(F)F)C(F)(F)F)cc1 + Cn1cc(/C=C2\C(=O)Nc3cccnc32)c2ccccc21 [GW441756] (first compound 7 µM, partner dose 2 µM)",68.7%
15,"Cn1cc(/C=C2\C(=O)Nc3cccnc32)c2ccccc21 + CC(C)CCN1c2nc(Nc3cc(F)c(O)c(F)c3)ncc2N(C)C(=O)C1C [BID1870] (first compound 2 µM, partner dose 1 µM)",68.6%
16,"COC(=O)c1sccc1S(=O)(=O)Nc1ccc(Nc2ccccc2)cc1OC + COc1cc2ncnc(Nc3ccc(Oc4ccccc4)cc3)c2cc1OC [SrcI1] (first compound 5 µM, partner dose 10 µM)",68.7%
